# Source: PMC7819943, “Rice protein-binding microarrays: a tool to detect cis-acting elements near promoter regions in rice”
# The list shows a part of the results.
# Target: T1, OsWOX13 (Oryza sativa, UniProt Q5QMM3 1-267)
# T1 sequence: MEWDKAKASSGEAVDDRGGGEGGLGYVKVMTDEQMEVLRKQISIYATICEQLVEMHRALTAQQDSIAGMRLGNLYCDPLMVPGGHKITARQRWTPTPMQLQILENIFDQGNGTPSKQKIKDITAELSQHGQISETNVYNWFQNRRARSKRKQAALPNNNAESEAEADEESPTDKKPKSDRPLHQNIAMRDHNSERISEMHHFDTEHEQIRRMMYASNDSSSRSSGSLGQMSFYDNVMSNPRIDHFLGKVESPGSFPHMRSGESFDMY
# Experiment: protein-binding microarray (RPBM); PBS, 2% BSA, 51.3 ng/ul salmon testes DNA, 50 uM zinc acetate, 200 nM TF, 25 C, 1 h; high values mean tight binding
# Conditions: protein: recombinant; tags: N-terminal polyhistidine and DsRed monomer fusion (pET32a); label: CyDye5-dUTP incorporated in the synthesized complementary strand; 3' TTTTT single-stranded linker to array surface; dsDNA, one strand shown
# Summary of the method: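 Using Ni–NTA, transcription factors fused N-terminally to polyhistidine and DsRed were purified after expression in E. coli BL21-CodonPlus. These were incubated at 200 nM with a blocked, double-stranded custom Agilent array for 1 h at 25 °C in a buffer containing 50 µM zinc acetate, and the array was washed. The binding signal is per-feature fluorescence intensity (arbitrary units) on an Axon 4000B scanner.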
row,Sequence,binding signal
1,CACCTGTTAATCACAAACATTGCTTTGAAGCTCTTGACCGCGGAGTCACCTAGTGCAG,6210 fluorescence intensity (a.u.)
2,ATTGCAATCAGTCAATATTATCCATAGTCTCTGATAGAGACGGAGTCACCTAGTGCAG,13900 fluorescence intensity (a.u.)
3,GTTGTGGTGATTTGGGATCTAGATGACACACTATGACAAGCGGAGTCACCTAGTGCAG,5840 fluorescence intensity (a.u.)
4,CAGGATAATTTCATCAAAATGCCTCTGGAATTTAGGAAAACGGAGTCACCTAGTGCAG,5110 fluorescence intensity (a.u.)
5,AATAAATAATTATTGCTAATGGGTGATGATGTGGCATGGTCGGAGTCACCTAGTGCAG,25200 fluorescence intensity (a.u.)
6,AAGTGATTGCCCTGGCTCAGAGTTGAGTAAACAATCAGGCCGGAGTCACCTAGTGCAG,19900 fluorescence intensity (a.u.)
7,CAATTCCAAAATTAATTAATGCAGTTCATGTACCCCTTTTCGGAGTCACCTAGTGCAG,10400 fluorescence intensity (a.u.)
8,CAGTAATAAACAAATCAAGTCAGAAGAGAAGGGAGGCATGCGGAGTCACCTAGTGCAG,4180 fluorescence intensity (a.u.)
9,TTTAATTGGCGGTAGTAGAATTATACAAGGCGCGATGGAGCGGAGTCACCTAGTGCAG,27200 fluorescence intensity (a.u.)
10,ACACAGCTAATTAGCTCTATGACTAAATGAATAAAATGACCGGAGTCACCTAGTGCAG,25800 fluorescence intensity (a.u.)
11,AAGTCTAATTAATTCATAATTAGCACATGTTTACTGTAGCCGGAGTCACCTAGTGCAG,53800 fluorescence intensity (a.u.)
12,TATAATCTCATGCACCTTAATTTGTTTCTTAGTGGCCCAGCGGAGTCACCTAGTGCAG,3240 fluorescence intensity (a.u.)
13,GTCTTGTTTTAAAGATTTAATTGCAACGAATTTAATGGTGCGGAGTCACCTAGTGCAG,3480 fluorescence intensity (a.u.)
14,ACTAACGATTGATCGCCATCAAGTATAGCTATAGCTAGCTCGGAGTCACCTAGTGCAG,11300 fluorescence intensity (a.u.)
15,ATTTAAATTAATCTTACTTTTGAATATGAGTAAATTACATCGGAGTCACCTAGTGCAG,13600 fluorescence intensity (a.u.)
16,ATGTGATTCGAATTTTAGATCTGCAATGTATTTGGATAAGCGGAGTCACCTAGTGCAG,3330 fluorescence intensity (a.u.)
17,TCAATTAGATAGATTAATATGTTATAGATCATTCTACAAACGGAGTCACCTAGTGCAG,21900 fluorescence intensity (a.u.)
18,ATGATTTCTTGATCTGGAAGCTTGCGCGATCTCACAATCCCGGAGTCACCTAGTGCAG,3270 fluorescence intensity (a.u.)
19,TATAAATAGCCTATGATTTGGCTAAGGTGGTCCGAACTCCCGGAGTCACCTAGTGCAG,5650 fluorescence intensity (a.u.)
20,AGAGTTTGATGGATTAGTCTTTGTGCTTCAGTATTTCCACCGGAGTCACCTAGTGCAG,12800 fluorescence intensity (a.u.)
21,ATGGGTAGGAGGGTTATTAATTGATGATGTGGTTTGGTTACGGAGTCACCTAGTGCAG,10900 fluorescence intensity (a.u.)

row,Sequence,binding signal
1,GATTAATCATGTCACATCAGGAAGATTCATCAGTTGATCACGGAGTCACCTAGTGCAG,8550 fluorescence intensity (a.u.)
2,ATTCCAAATTTCCGGTAATTTTGGTCCCATCGGTAAGCACCGGAGTCACCTAGTGCAG,10400 fluorescence intensity (a.u.)
3,GGATAATTGTGTACATCAGTTTGGTATGACCTCTATGCACCGGAGTCACCTAGTGCAG,37000 fluorescence intensity (a.u.)
4,ATAATATGATGAAATTTACCGAGCAACAAACTTTGTTAATCGGAGTCACCTAGTGCAG,3380 fluorescence intensity (a.u.)
5,TTTGAATTTTCATCTATAATTAAATTAAGAAAACAATATGCGGAGTCACCTAGTGCAG,3570 fluorescence intensity (a.u.)
6,AGTACAATTGGATGCAATTTATCTTTCTGTAGAAGCGATACGGAGTCACCTAGTGCAG,3300 fluorescence intensity (a.u.)
7,GTTGATGATGTGGCTTCTTGCTTGTCTTGCTTTATAGGAGCGGAGTCACCTAGTGCAG,5720 fluorescence intensity (a.u.)
8,TGTGATTTGCACCGCATACTTTCCCCGACAATAGATCATCCGGAGTCACCTAGTGCAG,10800 fluorescence intensity (a.u.)
9,TTTGACTGTATTACAGTGAAATACTGGAGAAATCTGGGAGCGGAGTCACCTAGTGCAG,9340 fluorescence intensity (a.u.)
10,CATGATGTTATACAGTTCCTTAATTGGCACCCCTCCTAAACGGAGTCACCTAGTGCAG,25400 fluorescence intensity (a.u.)
11,AATCAATCAATCAATCAATCCCTCCCATTGCTTCACATTTCGGAGTCACCTAGTGCAG,50200 fluorescence intensity (a.u.)
12,TTCATGCTTAATTTGCTTCCTTTCTTCCAACAATGGACATCGGAGTCACCTAGTGCAG,4470 fluorescence intensity (a.u.)
13,GGTCTATTTATGATTGCTGTGAAGCAAAATCCTTGCTTGGCGGAGTCACCTAGTGCAG,18200 fluorescence intensity (a.u.)
14,TGAGTAATTGATAGTGACACGGCTATCCAACCAATCCAGGCGGAGTCACCTAGTGCAG,65100 fluorescence intensity (a.u.)
15,CGAATTGCAAATTATTTAACATCTCAGTCATGATATTGCCCGGAGTCACCTAGTGCAG,9400 fluorescence intensity (a.u.)
16,ACGTGGGTGATTGCTCCTGCCCAAACCTCTAGTCATGATACGGAGTCACCTAGTGCAG,10100 fluorescence intensity (a.u.)
17,GCGATTTGATGAATGGCTTTCTTCAAGTTCATATCATTCGCGGAGTCACCTAGTGCAG,3390 fluorescence intensity (a.u.)
18,AATTAGTTTAATTGGTTAGATCCATTGCAAATTGATACATCGGAGTCACCTAGTGCAG,19900 fluorescence intensity (a.u.)
19,AATCATATAGACTTATATAATTATGGGTACTCCCTCCGTCCGGAGTCACCTAGTGCAG,3700 fluorescence intensity (a.u.)
20,ATATTTGATTGGTTTGGTGTCACTAAAATTTTAAAACTTACGGAGTCACCTAGTGCAG,22900 fluorescence intensity (a.u.)
21,GATGGAATTGACAAATTTCCACAAGAGTTAATGGAGTGCACGGAGTCACCTAGTGCAG,30900 fluorescence intensity (a.u.)
